These results are taken from PubChem BioAssay AID1745853 (National Center for Advancing Translational Sciences (NCATS), 2022).

What all share (experiment): Primary Screen for Target Class Profiling of Small Molecule Inhibitors of Methyltransferases
Experiment [1] concerns the target Glycine N-methyltransferase (Homo sapiens) (UniProt Q14749). The following applies: purified enzyme, MTase-Glo SAH luminescence; measured here: GNMT inhibition; at 40 µM; stronger effect = lower value. The method in brief:
(§1)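 Each enzyme was assayed with SAM and its substrate. SAH formation detected by MTase-Glo luminescence; single-point 40 uM screen[…].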

The target of experiment [2] is Guanidinoacetate N-methyltransferase (Homo sapiens) (UniProt Q14353). The following applies: purified enzyme, MTase-Glo SAH luminescence; measured here: GAMT inhibition; at 40 µM; stronger effect = lower value. The method in brief: as §1
The target of experiment [3] is Histamine N-methyltransferase (Homo sapiens) (UniProt P50135). The following applies: purified enzyme, MTase-Glo SAH luminescence; measured here: HNMT inhibition; at 40 µM; stronger effect = lower value. The method in brief: as §1
Experiment [4] concerns the target Nicotinamide N-methyltransferase (Homo sapiens) (UniProt P40261). The following applies: purified enzyme, MTase-Glo SAH luminescence; measured here: NNMT inhibition; at 40 µM; stronger effect = lower value. In a few lines:
as §1

In experiment [5] the target is Phenylethanolamine N-methyltransferase (Homo sapiens) (UniProt P11086). The following applies: purified enzyme, MTase-Glo SAH luminescence; measured here: PNMT inhibition; at 40 µM; stronger effect = lower value. In a few lines: as §1

The structures appear in SMILES notation. Several values for one entry are separate records, joined by “and”; a condition that tells them apart may be missing. Identical values can stand only once. This is one part of the list. The main result of the screen is listed elsewhere. These columns were measured beside it and carry no call.
On the % scale 0 is the no-effect control and ±100 the full control effect.

On to `COc1cccc(-c2ccc3c(n2)CNC(=O)CO3)c1`, for which the activity change, negative = inhibition is -11.2% in experiment [1]; -6.66% in experiment [2]; -7.09% in experiment [3]; -13.5% in experiment [4]; -8.89% in experiment [5].

With `COc1cc(CC(=O)O)ccc1O`, the activity change, negative = inhibition in experiment [1] is -12.2%; in experiment [2], -0.107%; in experiment [3], -2.99%; in experiment [4] it was -10.5%; in experiment [5] it was 0.838%.

For the compound `Cc1ccc(NS(=O)(=O)c2cc3[nH]c(=O)[nH]c3cc2C)c(C)c1`, the activity change, negative = inhibition was -5.55% in experiment [1]; 0.956% in experiment [2]; -1.17% in experiment [3]; -7.78% in experiment [4]; -14.2% in experiment [5].

As for `Cc1cc(Cl)ccc1N1C(=O)c2cc(C(C)(C)C)nn2CC1(C)C(=O)NCc1ccccc1` (stereo not given), the activity change, negative = inhibition is 7.55% in experiment [1]; 0.03% in experiment [2]; 7.91% in experiment [3]; 8.77% in experiment [4]; 2.64% in experiment [5].

Turning to `O=c1[nH]c2cc(Cl)ccc2c(O)c1-c1ccc(Oc2ccccc2)cc1`, the activity change, negative = inhibition in experiment [1] was -6.39%; in experiment [2], 12.6%; in experiment [3] it was 5.3%; in experiment [4], -17.4%; in experiment [5], 1.16%.

On to `COc1cccc(S(=O)(=O)N2CC(Oc3ccccc3-c3noc(C)n3)C2)c1`, for which the activity change, negative = inhibition was -4.81% in experiment [1]; -1.78% in experiment [2]; -0.534% in experiment [3]; -7.29% in experiment [4]; -3.43% in experiment [5].

As to `CC1(C(=O)NC2CCCCC2)Cn2c(ccc2-c2ccco2)C(=O)N1CCc1cccs1` (stereo not given), the activity change, negative = inhibition was -4.57% in experiment [1]; 4.45% in experiment [2]; 2.72% in experiment [3]; -2.38% in experiment [4]; -4.82% in experiment [5].

For `CCOC(=O)COc1ccc2c(-c3ccccc3)cc(=O)oc2c1`, the activity change, negative = inhibition was -7.94% in experiment [1]; 3.62% in experiment [2]; -0.397% in experiment [3]; -10.8% in experiment [4]; -26.4% in experiment [5].

In the case of `Cc1nn(C)c(C)c1S(=O)(=O)N1CCC2(CC1)CC(N(C)Cc1ccccc1)CCO2` (stereo not given), the activity change, negative = inhibition in experiment [1] is -5.28%; in experiment [2], -7.61%; in experiment [3], -4.03%; in experiment [4] it was -14.5%; in experiment [5], -5.97%.

On to `COc1ccc(CNC(=O)C(C)n2ccc3cc(S(=O)(=O)N4CCCCC4)ccc32)cc1OC` (stereo not given), for which the activity change, negative = inhibition in experiment [1] is -13.7%; in experiment [2], 0.087%; in experiment [3], 2.25%; in experiment [4] it was -4.3%; in experiment [5] it was -2.08%.

As for `CCCN1C(=O)c2c(C(=O)NCCc3ccc(C)cc3)ncn2CC1(C)C(=O)NCc1ccc(C)cc1` (stereo not given), the activity change, negative = inhibition in experiment [1] was -0.739%; in experiment [2], 0%; in experiment [3], 6.92%; in experiment [4], 5.52%; in experiment [5], 8.59%.

On to `O=C(CCn1cncn1)N1CCC(c2nccn2Cc2cccnc2)CC1`, for which the activity change, negative = inhibition is -1.85% in experiment [1]; -1.92% in experiment [2]; 2.76% in experiment [3]; -0.198% in experiment [4]; -8.01% in experiment [5].

As for `CC1CCC(NC(=O)C2(C)Cn3c(ccc3-c3ccco3)C(=O)N2Cc2cccnc2)CC1` (stereo not given), the activity change, negative = inhibition in experiment [1] stood at 0.916%; in experiment [2], 0%; in experiment [3], 10.8%; in experiment [4] it was 3.9%; in experiment [5] it was 3.59%.

With `CC1(C(=O)NC2CCCCC2)Cn2c(ccc2-c2ccco2)C(=O)N1Cc1ccc2c(c1)OCO2` (stereo not given), the activity change, negative = inhibition was -6.96% in experiment [1]; -0.065% in experiment [2]; 0.555% in experiment [3]; -6.61% in experiment [4]; -4.68% in experiment [5].

Consider `CCOc1ccc(CCN2C(=O)c3ccc(-c4ccco4)n3CC2(C)C(=O)NC2CCCCC2)cc1` (stereo not given), for which the activity change, negative = inhibition in experiment [1] is -11.3%; in experiment [2] it was -0.146%; in experiment [3] it was -6.35%; in experiment [4], -11%; in experiment [5], -7.74%.

With `CC1CCC2(C(=O)O)CCC3(C)C(=CCC4C5(C)CCC(O)C(C)(C(=O)O)C5CCC43C)C2C1(C)O` (stereo not given), the activity change, negative = inhibition was 2.83% in experiment [1]; 6.22% in experiment [2]; 3.94% in experiment [3]; -7.12% in experiment [4]; 6.51% in experiment [5].

For `CNC(=O)[C@@H]1CN(C(=O)c2conc2C)C[C@H]1COC`, the activity change, negative = inhibition in experiment [1] is -5.71%; in experiment [2], -10.1%; in experiment [3], -4.44%; in experiment [4], -12.6%; in experiment [5] it was -23.1%.

For the compound `Cc1ccccc1CCN1CCC(CN(C(=O)c2ccoc2C)C2CCCC2)CC1`, the activity change, negative = inhibition in experiment [1] is -5.59%; in experiment [2], -3.3%; in experiment [3], -10.2%; in experiment [4], -12.8%; in experiment [5], -6.61%.

For the compound `CON(C)C(=O)[C@H](O)[C@H](Cc1ccccc1)NC(=O)c1cc2cc(Cl)ccc2[nH]1`, the activity change, negative = inhibition is -1.17% in experiment [1]; 8.62% in experiment [2]; 10.4% in experiment [3]; -14.9% in experiment [4]; 3.32% in experiment [5].

For the compound `Cn1ncc(Cl)c1-c1cc(C(=O)N[C@H](CN)Cc2ccc(F)c(F)c2)sc1Cl`, the activity change, negative = inhibition in experiment [1] is 9.68%; in experiment [2] it was 12%; in experiment [3], 9%; in experiment [4], -14%; in experiment [5], 5.46%.

With `COc1cccc(CNC(=O)N2CCn3cccc3C2Cc2ccccc2)c1` (stereo not given), the activity change, negative = inhibition in experiment [1] is 1.78%; in experiment [2] it was 0%; in experiment [3], 1.78%; in experiment [4], -3.54%; in experiment [5], -2.27%.

As to `CCOC(=O)c1cc2n(n1)CC(C)(C(=O)NC1CCCC1)N(Cc1ccc(Cl)cc1)C2=O` (stereo not given), the activity change, negative = inhibition in experiment [1] amounted to 4.94%; in experiment [2] it was 2.49%; in experiment [3], 6.6%; in experiment [4] it was 5.31%; in experiment [5], 4.72%.

`Cc1ccccc1CNC(=O)CCn1ccc2cc(S(=O)(=O)N3CCCCC3)ccc21`: the activity change, negative = inhibition in experiment [1] is 5.34%; in experiment [2], 0%; in experiment [3] it was 4.73%; in experiment [4], -2.1%; in experiment [5], 1.59%.

Regarding `NC(=O)c1cccc(CN2CCCC3(Cc4ccccc4N(C(=O)c4ccc(Cl)cc4)C3)C2)c1` (stereo not given), the activity change, negative = inhibition in experiment [1] was -7.76%; in experiment [2], -2.81%; in experiment [3], -6.83%; in experiment [4], -11.7%; in experiment [5], -7.3%.

With `CCNc1nc2c(ncn2[C@H]2C[C@H](O)[C@@H](CO)O2)c(=O)[nH]1`, the activity change, negative = inhibition is -0.892% and 4.27% in experiment [1]; 4.12% and 8.4% in experiment [2]; 1.64% and 6.91% in experiment [3]; -4.5% and -11.5% in experiment [4]; 8.2% and -0.882% in experiment [5].

Take `NC(=O)NO`: the activity change, negative = inhibition is 6.57% in experiment [1]; 11.7% in experiment [2]; 5.19% in experiment [3]; -2.14% in experiment [4]; 9.44% in experiment [5].

As for `Clc1ccccc1C(c1ccccc1)(c1ccccc1)n1ccnc1`, the activity change, negative = inhibition in experiment [1] is -9.99%; in experiment [2], 4.48%; in experiment [3], -15.4%; in experiment [4], -34.8%; in experiment [5] it was 6.11%.

In the case of `CCN(CC)C(=O)c1ccc(Nc2nc(OCC3CCCCC3)c3[nH]cnc3n2)cc1`, the activity change, negative = inhibition in experiment [1] is -14.8%; in experiment [2], -1.78%; in experiment [3] it was -12.5%; in experiment [4], -84.1%; in experiment [5] it was -22.8%.

In the case of `CC(=O)OC1CC(=O)C2(C)C3CC4=C(OC(C)CC4=O)OC3(C)CCC2C1(C)C` (stereo not given), the activity change, negative = inhibition in experiment [1] was -3.76%; in experiment [2], 2.25%; in experiment [3] it was 2.81%; in experiment [4], -91.2%; in experiment [5], 2.78%.

Take `Cc1ccc(C)c(Cn2nc3n(CC(C)C)c(=O)c4ccccc4n3c2=O)c1`: the activity change, negative = inhibition in experiment [1] was determined as 3.84%; in experiment [2] it was 2.74%; in experiment [3], 5.59%; in experiment [4], 3.56%; in experiment [5], 4.46%.

With `CN1C(=O)c2cc(C(=O)NCc3ccc4c(c3)OCO4)nn2CC1(C)C(=O)NC1CCCCC1` (stereo not given), the activity change, negative = inhibition in experiment [1] is -0.814%; in experiment [2], 3.31%; in experiment [3], -1.57%; in experiment [4] it was 5.24%; in experiment [5], 1.39%.
